Reference: PubChem BioAssay AID1159614 (National Center for Advancing Translational Sciences (NCATS), 2016)
About 65 (0.1%) of roughly 45,000 compounds were called active. The call rests on the fitted dose curve; in most records, active means well fitted activation curve with a large enough effect; inconclusive means small, poorly fitted or top-dose-only effect; inactive means no such curve, though single readings can be large or run the other way. This is one part of the list.

Target: Galactocerebrosidase (Homo sapiens) (UniProt P54803)
UniProt P54803, sequence (P54803 whole entry, looked up): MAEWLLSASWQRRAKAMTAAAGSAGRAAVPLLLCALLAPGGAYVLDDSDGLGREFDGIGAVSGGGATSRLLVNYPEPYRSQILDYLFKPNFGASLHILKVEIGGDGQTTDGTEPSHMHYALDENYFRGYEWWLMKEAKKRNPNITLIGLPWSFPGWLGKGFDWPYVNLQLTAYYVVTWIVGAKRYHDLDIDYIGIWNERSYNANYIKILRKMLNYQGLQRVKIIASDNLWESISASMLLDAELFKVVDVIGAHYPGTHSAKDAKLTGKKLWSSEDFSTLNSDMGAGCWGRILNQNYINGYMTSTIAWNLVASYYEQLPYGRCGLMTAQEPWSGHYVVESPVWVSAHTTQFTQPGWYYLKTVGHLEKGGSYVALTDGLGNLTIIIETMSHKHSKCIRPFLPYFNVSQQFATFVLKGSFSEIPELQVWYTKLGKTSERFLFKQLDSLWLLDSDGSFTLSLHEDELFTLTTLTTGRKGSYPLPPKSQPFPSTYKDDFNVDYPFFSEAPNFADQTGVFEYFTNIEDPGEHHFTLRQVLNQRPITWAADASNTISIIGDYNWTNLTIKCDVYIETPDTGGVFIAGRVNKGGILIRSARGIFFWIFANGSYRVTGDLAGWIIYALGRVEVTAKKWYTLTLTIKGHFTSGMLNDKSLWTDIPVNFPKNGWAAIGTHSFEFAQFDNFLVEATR
Assay: A Novel Cell-Based Assay to Identify Small Molecules for B -Galactocerebrosidase; further: 0% is about no effect; nearly all actives have a fitted effect of over 65% in size
Details: 145M-Twi-hGALC-G270D cells (Twitcher mouse brain line with human GALC G270D), HMU-beta-Gal fluorescence, 48 h; series mostly up to 57.5 µM; activation: at the top concentration
Outline: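 Mutant human GALC (G270D), stably expressed in a Twitcher mouse brain cell line lacking endogenous GALC, is measured in live-treated cells via 6-hexadecanoylamino-4-methylumbelliferyl-β-galactoside hydrolysis (0.1 mM final, pH 5.2) with fluorescent detection.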

activation, inactive:
Cc1ccc(CN(C(=O)COc2ccccc2[N+](=O)[O-])c2ccccn2)cc1 -23.3%, COC(=O)c1ccccc1NC(=O)c1cnn(-c2ccc(F)cc2)c1-n1cccc1 9.27%, CCOc1ccc(-n2nc(CO)c(C(=O)NCc3ccccn3)n2)cc1 -4.23%, CCCN(CCC)CCNC(=O)CN1C(=O)COc2ccc(S(=O)(=O)N3CCOCC3)cc21 -9.66%, O=C(NCc1ccccc1Cl)C1CCN(C(=O)N2CCOc3ccccc32)CC1 -9.41%, Cc1cccc(OCC(=O)NCCc2nc3ccccc3[nH]2)c1C -9.63%, CCC(CC)C(=O)Nc1nnc(S(=O)(=O)N2CCc3ccccc32)s1 -4.37%, COc1ccc(NC(=O)Cn2c(=O)c3cccn3c3ccccc32)cc1Cl -11.8%, O=C(Nc1ccc(-c2nc3ccccc3o2)c(O)c1)c1ccccc1 -8.74%, Cc1ccc(-c2nnc(Nc3ccc(C(N)=O)cc3)c3ccccc23)cc1S(N)(=O)=O -16.3%, CCOC(=O)c1noc2ncnc(Nc3cc(Cl)c(OC)cc3OC)c12 -18.4%, COc1cccc2sc(NC(=O)c3ccc(S(=O)(=O)N4CCC(C)CC4)cc3)nc12 -22.5%, CCN1CCN(CCCNC(=O)CS(=O)(=O)Cc2nc(-c3ccccc3C)oc2C)CC1 -7.57%, COc1ccc(N2CCN(C(=O)C3CCN(S(=O)(=O)c4cccc5nonc45)CC3)CC2)cc1 -2.55%, Cc1cc(C)cc(NC(=O)c2ccc3oc(=O)c(S(=O)(=O)c4ccc(F)cc4)cc3c2)c1 -20.1%, CCOc1ccc(CNCc2c(C(=O)O)c(C)n(Cc3ccc(C)cc3)c2C)cc1 -11.1%, Cc1nnc(N2CCCC(C(=O)NCCN(C)C)C2)c2nn(-c3ccccc3)c(C)c12 (stereo not drawn) -8.8%, CCOc1ccccc1OCCCCn1c(-c2ccc(Cl)cc2)nc2ccccc2c1=O -7.98%, COc1ccc(C)cc1NC(=O)Nc1cc(C(=O)NCc2ccc(C)cc2)ccc1N1CCCC1 -30.4%, Cc1sc(-c2cc3ccccc3oc2=O)nc1-c1ccc(Cl)c(Cl)c1 -18.5%, COc1ccc(-c2nc3sc(CCNC(=O)Cc4ccc(F)cc4)c(C)n3n2)cc1 2.28%, Cc1ccc(-n2ncc3c(N(C)C)ncnc32)cc1Cl -19.7%, CCC(Sc1nc(-c2ccccc2)[nH]c1S(=O)(=O)c1ccc(C)cc1)C(=O)O (stereo not drawn) -6.58%, Cc1cc(=O)n(Cc2ccc(F)cc2Cl)c2c1c(C)nn2C -7.54%, CC(C)c1ccc(-c2noc(SCC(=O)N3CCCCC3C)n2)cc1 (stereo not drawn) -11%, O=C(NCCCN1CCN(c2ccc(F)cc2)CC1)c1cc2c(Cl)nc3ccccc3c2s1 -0.648%, Cc1cccc(-c2nc(CCNC(=O)c3ccc(Br)o3)cs2)c1 -8.03%, Cc1cc(C)cc(OC(=O)c2cc(-c3ccc(Cl)cc3)on2)c1 -9.69%, CCCCCN1C(C(=O)c2ccccc2)=C(NC(=O)c2ccc(C)cc2)c2ccccc2S1(=O)=O -22.2%, CC1CCc2onc(C(=O)N3CCN(c4ccc(F)cc4)CC3)c2C1 (stereo not drawn) -10.2%, CCOc1ccc(NC(=O)c2c(NCc3cccnc3)sc3c2CCC(C)C3)cc1 (stereo not drawn) -9.05%, CCN1CCN(C(=O)c2cnn(-c3ccc(F)cc3F)c2C2CCN(C(=O)OC(C)(C)C)CC2)CC1 -0.916%, CC(=O)c1sc(NC(=O)c2c(-c3ccccc3)c(-c3ccccc3)nn(C)c2=O)nc1C -0.472%, CCN(CC)C(=O)Cn1c(=O)n(-c2ccc(C)c(C)c2)c(=O)c2c(C)c(C(=O)N(CC)CC)sc21 1.43%, COc1ccc(OC)c(NC(=O)c2cnc(Nc3ccc(C)c(Cl)c3)c3ccccc23)c1 -7.47%, CC(=O)c1ccc(O)c(C(N)=O)c1 -4.66%, CC1=C(C(=O)Nc2ccc(Cl)cc2)C(c2cccs2)n2nc(SCc3cccc(C)c3)nc2N1 (stereo not drawn) -4.72%, O=C(CSc1nc2cc3ccccc3cc2[nH]1)Nc1ccc(F)cc1 -19.2%, CC(C)(C)OC(=O)N1CCC(c2c(C(=O)N3CCN(c4ccccc4F)CC3)cnn2-c2ccccc2Cl)CC1 -6.34%, Cc1ccc(NC(=O)c2cnc(SCC(=O)N3CCCc4ccccc43)n(C)c2=O)cc1 -3.84%, CC(=O)Nc1c(C)nn(-c2ccccc2)c1N1CCC(C(=O)NCc2cccc(Cl)c2)CC1 -1.2%, COc1cc(Cl)c(NC(=O)CCc2nc3cccnc3n2-c2ccccc2)c(OC)c1 -6.81%, CCOc1ccc(NC(=O)CCNS(=O)(=O)c2ccc3c(c2)CCCC(=O)N3)cc1 -25.1%, CCOc1ccc(N(C)S(=O)(=O)c2cc(-c3cc(C)no3)ccc2OC)cc1 -42.6%, COC(=O)c1c(NC(=O)COc2ccc(C)cc2Br)sc2c1CCCC2 -21.9%, Cc1cccc(NC(=O)C2CCCN(S(=O)(=O)c3ccc4c(c3)oc(=O)n4C)C2)c1C (stereo not drawn) -7.79%, CC(O)(P(=O)(O)O)P(=O)(O)O -16.3%, CCCCCCCCCCCCCC(=O)OC(C)C -14.7%, CCc1ccccc1NC(=O)CN1C(=O)C2CCCN2c2ccc(S(=O)(=O)N(CC)CC)cc21 (stereo not drawn) -29.5%, COc1cccc(N2C(=O)C(CC(=O)Nc3ccccc3)N(CCc3sccc3C)C2=O)c1 (stereo not drawn) -6.36%, Cc1c(CNC2CCC(C)CC2)c(C(=O)O)c(C)n1Cc1ccc(Cl)cc1 (stereo not drawn) -17.4%, CCOC(=O)C(CC)Sc1ncnc2c1c(-c1ccccc1)cn2-c1ccc(OC)cc1 (stereo not drawn) -11.3%, CCn1c(=O)c2cc(C(=O)NCc3ccc(F)cc3Cl)sc2c2ccccc21 -8.47%, Cc1ccc(C)c(N(C)C(=O)c2cc3c(s2)-c2ccccc2OC3)c1 11%, Cc1cc(=O)n(CC(=O)N2CCCc3ccccc32)c2c1c(C)nn2-c1cccc(F)c1 2.14%, Cc1cc(C)c(OCC(=O)N(Cc2ccc(N(C)C)cc2)CC2CCCO2)c(C)c1 (stereo not drawn) -4.77%, O=C(NCCc1ccc(F)cc1)C(=O)NCC(c1cccs1)S(=O)(=O)c1ccc(Cl)cc1 (stereo not drawn) -3.84%, CCS(=O)(=O)N1CC(=O)N(c2ccc(Cl)cc2C)C(C)(C(=O)NC2CCCCC2)C1 (stereo not drawn) -14.1%, O=C(CSc1nnc(-c2ccccc2)c(-c2ccccc2)n1)NCCc1ccccc1 4.34%, CN1C(=O)CC(C(=O)Nc2ccc(C(=O)O)cc2)SC1=Nc1ccc(Cl)cc1 (stereo not drawn) 6.74%, Cn1c(=O)c2c(nc(NCCCCO)n2Cc2ccccc2Cl)n(C)c1=O -14.9%, COc1ccc(C(=O)Nc2nnc(SCc3cc(=O)c4cccc(F)c4[nH]3)s2)cc1 -14.5%, CCc1cccc(C)c1NC(=O)CCCn1c(C)c2cnn(-c3ccccc3)c(=O)c2c1C -9.79%, CCCN(C(=O)Cc1nc(-c2ccc(OC)cc2)no1)c1ccccc1C -24%, Cc1cccc(N(C)C(=S)Oc2ccc3c(c2)C2CCC3C2)c1 (stereo not drawn) 4.31%, CCC(C)NC(=O)Cn1c(=O)n(CCCCCC(=O)Nc2ccccc2)c(=O)c2sccc21 (stereo not drawn) -15.7%, CCOC(=O)c1[nH]c(C)c(CCC(=O)Nc2ccccc2OCC)c1C -5.43%, CCCCOC(=O)c1ccc(OC(=O)c2sc3ncn(Cc4cccc(F)c4)c(=O)c3c2C)cc1 -7.46%, CCn1c2ccccc2c2cc(CN3CCN(Cc4ccc(Cl)cc4)CC3)ccc21 -5.5%, CC(=O)c1ccc(NC(=O)C(C)n2nc(-c3ccccc3)ccc2=O)cc1 (stereo not drawn) -10.8%, CCN(CC)CCCNC(=O)Cn1ncc2c3ccccc3n(Cc3ccccc3)c2c1=O -1.97%, CCN(CC)c1ccc(NS(=O)(=O)c2cc(-c3onc(C)c3C)ccc2OC)c(C)c1 -4.11%, Cc1ccc2c(=O)cc(C(=O)Nc3ccc(S(=O)(=O)N4CCCCC4C)cc3)oc2c1C (stereo not drawn) -8.72%, CC(=O)Nc1cc(C(=O)NCc2ccc(F)cc2)ccc1S(=O)(=O)c1ccc(C)cc1 -8.36%, COc1cc2[nH]c(=O)[nH]c(=O)c2cc1OC -12.8%, COc1cccc(-c2nnc(SCC(=O)N(C)c3ccccc3)o2)c1 -17.8%, Cc1cccc(C)c1NC(=O)Cn1cc(C(=O)c2ccco2)c2ccccc21 -17.8%, O=C(Cn1ncc2c3ccccc3n(Cc3cccc(Cl)c3)c2c1=O)NCCCc1ccccc1 -15%, COc1ccc(-c2c(C)nn3c(-c4ccccc4)cc(C)nc23)cc1OC -26%, CCc1nc(Nc2ccc(F)c(Cl)c2)c2c3c(sc2n1)CCCC3 -4.71%, Cc1cc(C)n(C(C)CC(=O)Nc2cccc(C#N)c2)n1 (stereo not drawn) -17.6%, Cc1ccc2oc(-c3ccc(Cl)cc3)c(O)c(=O)c2c1 -7.26%, CCOc1ccc(-c2nn(-c3ccc(F)cc3)c3c2cnc2ccc(F)cc23)cc1 0.404%, Cc1cc(O)c(C(c2ccccc2)N2CCN(c3ccccc3)CC2)c(=O)n1Cc1ccco1 (stereo not drawn) -16%, Cc1nc2cc(C(=O)NCCC3=CCCCC3)ccc2n1-c1ccc(Br)cc1 -13.8%, Cc1ccc(-n2c(=O)c3ccc(C(=O)NCc4ccccc4Cl)cc3n(CC(=O)Nc3cccc(Cl)c3)c2=O)cc1 -1.56%, Cc1cc(C)c(NC(=O)CCN2C(=O)c3ccccc3Sc3ncccc32)c(C)c1 -20.7%, CCc1nn(CC(=O)NCC(C)c2ccccc2)c(=O)c2cc3occc3n12 (stereo not drawn) 15.2%, Cc1ncc(COP(=O)(O)O)c(C=O)c1O -4.92%, CCOc1ccc(C(=O)NCc2nnnn2-c2ccc(C)c(C)c2)cc1OCC -7.32%, CN(Cc1ccccc1)C(=O)C1CCN(S(=O)(=O)c2ccc3c(c2)oc(=O)n3C)CC1 -8.76%, CCOC(=O)CNC(=O)CSc1cn(CC(=O)N2CCCCCC2)c2ccccc12 -24.6%, Cc1cccc(C(=O)Nc2nnc(S(=O)(=O)N(C)Cc3ccc(Cl)cc3)s2)c1 2.04%, O=C1COc2ccc(-c3cc(-c4ccc(Cl)cc4)c4c(n3)-c3ccccc3OC4)cc2N1 -1.46%, CCCCCNC(=O)c1ccc2c(c1)ncn2-c1cccc(C)c1 -8.82%, COC(=O)c1cc2c(cc1NC(=O)c1cnn(-c3ccccc3)c1-n1cccc1)OCO2 -12.2%, CSc1nc(Nc2ccc(C)cc2C)cc(-c2ccccc2)n1 -7.87%, COc1ccccc1CN1CCC(CNS(=O)(=O)c2cc(-c3onc(C)c3C)ccc2OC)CC1 -11.2%
